According to PubChem BioAssay AID493208 (National Center for Advancing Translational Sciences (NCATS), 2011):
Out of some 44,000 compounds screened, about 340 (0.77%) were called active. Another 5% or so got no clear call; they are omitted. Calls come from the whole dose curve; as a rule, active = well fitted inhibition curve with a large enough effect; inconclusive = small, poorly fitted or top-dose-only effect; inactive = flat fitted curve, though single readings scatter. The list shows a part of the results.

experiment: Acumen qHTS Assay for Inhibitors of the mTORC1 Signaling Pathway in MEF (Tsc2-/-, p53-/-) Cells: Sytravon; details: phospho-rpS6 immunofluorescence/PI, 24 h; series mostly up to 38.3 µM; activity change, negative = inhibition: at the top concentration; note: nearly all actives have a fitted effect of over 50% in size;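 for activity change, negative = inhibition: plate controls were DMSO for no effect and rapamycin for full effect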
How it was run: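 Tsc2-/-, p53-/- mouse embryonic fibroblasts (empty-vector line) exposed to compound 24 hrs at 37 C, fixed, immunostained for phospho-rpS6 and counterstained with propidium iodide. Acumen laser scanning gives % positive cells from Alexa 488/PI ratio, thresholded using 7.5 nM rapamycin; PI count gives viability.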
Potency is the fitted concentration of half-maximal effect.

| SMILES | activity change, negative = inhibition | Potency |
| --- | --- | --- |
| COc1ccccc1NC(c1ccc(Cl)cc1)c1nnc(-c2cccc(F)c2)o1 (configuration not stated) | inactive: 2.04% |  |
| CC(C)(C)c1ccc(Cn2c(Cc3ccccc3)nc3ccccc32)cc1 | inactive: -8.86% |  |
| Cc1nn2c(=O)cc(CN(C)c3ccccc3)nc2s1 | inactive: -0.393% |  |
| CCOC(=O)c1ccccc1NC(=O)CSc1ncc(CO)n1Cc1ccc(C)cc1 | inactive: -14.3% |  |
| CCOc1ccc(-c2nonc2NC(=O)c2oc3ccc(F)cc3c2C)cc1 | inactive: -4.01% |  |
| O=C(COc1ccccc1Cl)Nc1cc(-c2ccccc2F)nn1-c1ccccc1 | inactive: 0% |  |
| Cc1cc(C)cc(NC(=O)CN(c2cc(C(F)(F)F)ccc2Cl)S(=O)(=O)c2ccccc2)c1 | inactive: 5.46% |  |
| COc1ccc(C2c3c(oc4ccccc4c3=O)C(=O)N2Cc2ccc3c(c2)OCO3)cc1 (configuration not stated) | inactive: -0.491% |  |
| COC(=O)c1ccccc1NC(=O)C1=CC(c2ccc(C)cc2)=NS(=O)(=O)N1C | inactive: 4.73% |  |
| O=C(CCS(=O)(=O)c1nc(-c2cccs2)cc(C(F)(F)F)n1)Nc1ccc(OC(F)(F)F)cc1 | inactive: -17.1% |  |
| COc1ccc(OC)c(NC(=O)c2cc3c(n(-c4ccc(Cl)cc4)c2=O)CC(C)(C)CC3=O)c1 | inactive: 0.202% |  |
| COc1cccc(-c2nn(C)c3sc(C(=O)NCc4cc(OC)ccc4OC)cc23)c1 | inactive: -0.768% |  |
| O=C(CN1CCN(Cc2ccc(F)cc2)C1=O)NCc1ccccc1Cl | inactive: -13.8% |  |
| Cc1cc(C)c(S(=O)(=O)Nc2ccc(-c3ccc(N4CCC(C)CC4)nn3)cc2)cc1C | inactive: -8.14% |  |
| COc1ccc(OCC(=O)Nc2nnc(S(=O)(=O)N3CCc4ccccc43)s2)cc1 | inactive: -3.55% |  |
| Cc1cccc(C)c1Nc1c(-c2ccccc2F)nc2cccc(C)n12 | inactive: -8.6% |  |
| CCCCN(CC)CCNC(=O)c1c(C)oc2ncnc(N3CCOCC3)c12 | inactive: -1.47% |  |
| Cc1ccccc1C(=O)Nc1cc2c(cc1N1CCOCC1)n(C)c(=O)n2C | inactive: -8.85% |  |
| Cc1ccc2oc3c(c(=O)c2c1)C(c1ccc(O)cc1)N(Cc1ccc2c(c1)OCO2)C3=O (configuration not stated) | inactive: -4.35% |  |
| CCOc1ccc(C(=O)c2cn(CC(=O)Nc3ccc(OC)cc3)c3cc4c(cc3c2=O)OCCO4)cc1 | inactive: 3.55% |  |
| COc1ccc2[nH]c(=O)c(CN(C(=O)c3cccc(Cl)c3)c3ccccc3C)cc2c1 | inactive: 1.3% |  |
| Cc1cc2nnc(SCc3ccc(F)cc3)n2c2ccccc12 | inactive: 1.1% |  |
| CC(C)CCn1c(=O)c2cccnc2n(CC(=O)Nc2ccc(F)cc2)c1=O | inactive: -11.5% |  |
| COc1cccc(-c2cc(C(=O)Nc3c(C)nn(Cc4ccccc4Cl)c3C)no2)c1 | inactive: -6.19% |  |

| SMILES | activity change, negative = inhibition | Potency |
| --- | --- | --- |
| COc1ccc2occ(CC(=O)Nc3ccc(S(=O)(=O)Nc4nccc(C)n4)cc3)c2c1 | inactive: -1.94% |  |
| Cc1ccc(CNC(=O)c2sc3nc[nH]c(=O)c3c2C)cc1 | inactive: -10% |  |
| CC1CN(c2ccc(Cl)cc2)c2nc3c(c(=O)n(CC(=O)O)c(=O)n3C)n2C1 (configuration not stated) | inactive: -3.64% |  |
| C#CCn1c(C2CC(=O)N(c3ccc(OC)cc3)C2)nc2ccccc21 (configuration not stated) | inactive: -0.0406% |  |
| CN1CCN(C2(CNC(=O)c3ccc(C(C)(C)C)cc3)CCCCC2)CC1 |  | active: 16.5 µM |
| COc1ccc(-n2c3c(c(=O)[nH]c2=O)C(NC(=O)c2ccccc2Cl)(C(F)(F)F)C(=O)N3)cc1 (configuration not stated) | inactive: 12.6% |  |
| COc1cccc(C(=O)NCc2ccc3c(c2)CCN3C(=O)c2ccncc2)c1 | inactive: -17.6% |  |
| COc1cccc(CNC(=O)Cn2c(=O)ccc3cc(S(=O)(=O)N4CCC(C)CC4)ccc32)c1 | inactive: -11.4% |  |
| COc1ccc(-c2[nH]c(-c3cccc(OC)c3)nc2SCC(=O)Nc2ccc3c(c2)OCO3)cc1 | inactive: -5.35% |  |
| COc1ccccc1-c1nc(SCC(=O)c2ccccc2)n[nH]1 | inactive: -12% |  |
| COc1ccc(CNc2nc(SCc3ccc(Cl)cc3)nc3ccccc23)cc1 | inactive: 0.497% |  |
| COc1ccc(-c2c3c(=O)n(C)c(=O)n(C)c3c3n2-c2ccccc2NC3c2ccc(OC)cc2)cc1 (configuration not stated) | inactive: -6.4% |  |
| Cc1ccc(NC(=O)c2cc(S(=O)(=O)N(C)C3CCCCC3)ccc2F)cc1C | inactive: 3.62% |  |
| COc1ccccc1C(=O)Oc1c(Sc2ccccc2)c(C)nn1C(C)(C)C | inactive: 3.23% |  |
| CCN(c1cccc(C)c1)S(=O)(=O)c1ccc(N2CCCCS2(=O)=O)cc1 | inactive: -0.85% |  |
| COc1ccc(NC(=O)c2ccc(-c3nc(CSc4ccc(C)cc4)c(C)o3)cc2)cc1Cl | inactive: -6.61% |  |
| O=C(Nc1ccc(C(=O)N2CCN(c3cccc(Cl)c3)CC2)cc1)c1nsc2ccccc12 | inactive: 4.72% |  |
| CCCCCN1C(C(=O)c2ccccc2)=C(NC(=O)c2ccc(OC)cc2)c2ccccc2S1(=O)=O | inactive: -9.95% |  |
| Cc1cc(C)c(NC(=O)C(C)n2c(=O)c(C(F)(F)F)nc3ccccc32)c(C)c1 (configuration not stated) | inactive: 6.44% |  |
| CCC(=O)N1CCc2cc(S(=O)(=O)NC(C(=O)NCCc3ccccc3)C(C)C)ccc21 (configuration not stated) | inactive: 0.364% |  |
| Cc1cc(C)cc(OCC(=O)Nc2nc3c(s2)CC(C(C)(C)C)CC3)c1 (configuration not stated) | inactive: -0.193% |  |
| CCOC(=O)CC(NC(=O)CCc1c(C)nc2c(c(C)nn2-c2ccc(C)c(C)c2)c1C)c1ccc(C)cc1 (configuration not stated) | inactive: -0.0784% |  |
| Cc1cccc(-n2ncc(C(=O)N3CCN(C4CCCCC4)CC3)c2C2CCN(C(=O)OC(C)(C)C)CC2)c1 | inactive: -4.79% |  |
